Source: PubChem BioAssay AID485364 (National Center for Advancing Translational Sciences (NCATS), 2010)
Hit rate of the full screen: of about 360,000 compounds, about 11,000 (3.1%) were called active. The shares of active, inactive and inconclusive entries below differ from those in the screen. Calls come from the whole dose curve; as a rule, active = well fitted inhibition curve with a large enough effect; inconclusive = small, poorly fitted or top-dose-only effect; inactive = no such curve, though single readings can be large or run the other way. No potency is given beside an inconclusive call; the fits are too rough.

What follows are compounds tested against Schistosoma mansoni thioredoxin glutathione reductase (TGR) (UniProt Q962Y6) (assay: qHTS Assay for the Inhibitors of Schistosoma Mansoni Peroxiredoxins). Conditions: purified TGR, DTNB reduction, TNB absorbance 405 nm; series mostly up to 114 µM.
Method in brief: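 TGR 20 nM + NADPH 100 uM (dispensed conc.), cpd preinc 15 min RT; start with NADPH (500 uM addition) then DTNB (15 mM addition). Kinetic TNB absorbance, 405 nm filter. Four-parameter Hill fit across titration.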
Note: nearly all actives have a fitted effect of over 60% in size.
Potency is the fitted concentration of half-maximal effect; tags give direction and shape of the fitted curve.

Compound | Potency
CCOc1ccc(NCc2ccccc2OCc2cccc(F)c2)cc1 | inconclusive [inhibitor, partial curve, poor fit]
O=C1CC(N2CCN(c3ccc(O)cc3)CC2)C(=O)N1Cc1cccs1 (configuration not stated) | active: 50.1 µM
CCOC(=O)CCC(=O)NCc1ccc2[nH]c(C)cc2c1 | active: 50.1 µM
O=C1CCCc2nc(N3CCN(C(c4ccccc4)c4ccccc4)CC3)ncc21 | inconclusive [inhibitor, partial curve, poor fit]
CCOC(=O)N1CCC(NC(=O)c2cnn(-c3ccc(C)cc3)c2C2CCN(C(=O)OC(C)(C)C)CC2)CC1 | inconclusive [inhibitor, single point]
N#Cc1ccc(NC(=O)c2ccc3c(c2)nnn3C2CCCC2)cc1 | active: 4.47 µM
N#C/C(=C\c1ccc(N2CCCCC2)o1)C(=O)Nc1cccc(Br)c1 | inconclusive [inhibitor, partial curve]
O=C(CSc1ccccc1)NC1CCCCCC1 | inactive
CC(C)c1nc2cc(C(=O)N3CCN(c4cnccn4)CC3)ccc2o1 | inactive
COc1cccc(NC(=S)/C(=C(\[O-])c2ccc(C)c([N+](=O)[O-])c2)[n+]2ccccc2)c1 | inconclusive [inhibitor, partial curve, poor fit]
CC1CC(C)CN(C(=O)Cn2c(=O)n(CCCCC(=O)NC3CCCC3)c(=O)c3ccccc32)C1 (configuration not stated) | active: 28.2 µM
CC(C)CCNC1c2ccccc2C(=O)N1Cc1ccccc1 (configuration not stated) | inconclusive [inhibitor, full curve, poor fit]
CC(C(=O)OCC(=O)c1ccc([N+](=O)[O-])cc1)N1C(=O)C2C3C=CC(C3)C2C1=O (configuration not stated) | inactive
O=S(=O)(Cc1cc(Sc2ccc(Cl)cc2)nc(-c2ccccc2)n1)c1ccccc1 | inactive
CCOC(=O)c1ccccc1NC(=O)c1nn(-c2ccc(C)cc2)c(=O)n(C)c1=O | inactive
CC(C)(C)n1cccc1/C=C1\C(=O)NC(=O)N(c2ccccc2)C1=O | inconclusive [inhibitor, full curve, poor fit]
C[C@H]1CCC/C=C/[C@@H]2C[C@H](O)C[C@H]2[C@H](O)/C=C/C(=O)O1 | inconclusive [inhibitor, partial curve]
CN(Cc1ccc(Cl)cc1Cl)C(=O)CNC(=O)c1ccco1 | inconclusive [inhibitor, full curve, poor fit]
CCCn1c(N)c(C(=O)CSc2nc(C)cs2)c(=O)[nH]c1=O | inactive
O=[N+]([O-])c1ccccc1/C=N/N1CCN(Cc2ccccc2)CC1 | inactive
CCOC(=O)C1=C(C)N(CCCCCC(=O)O)C(=O)NC1c1ccc(Br)cc1 (configuration not stated) | inactive
COc1ccc(NC(=O)C2CC(=O)n3cnnc3S2)cc1 (configuration not stated) | active: 0.282 µM
COc1ccc(C2c3sc(=O)[nH]c3SC3C(=O)N(c4ccccc4)C(=O)C32)cc1 (configuration not stated) | inactive
Cc1ccc(O)c(Nc2c3ccccc3nc3ccccc23)c1 | inconclusive [inhibitor, partial curve]

Compound | Potency
CC(C)(O)C1Cc2cc(/C=C/C(=O)O)c(O)cc2O1 (configuration not stated) | active: 0.224 µM
COc1cc2nc(=S)n3[nH]c(CCn4nc(C)cc4C)nc3c2cc1OC | inactive
Clc1ccc2c(NCc3cccs3)ncnc2c1 | inconclusive [inhibitor, partial curve]
Cc1cccc(C(=O)NCC(=O)OCC(=O)N2CCc3ccccc32)c1 | inconclusive [inhibitor, single point]
COc1ccc(CCN2C(=O)N(c3ccc(C)cc3)C(=O)C2CC(=O)Nc2ccc(OC)cc2)cc1 (configuration not stated) | inactive
O=C1Nc2cc(Cl)cnc2N2CCCC12 (configuration not stated) | inconclusive [inhibitor, partial curve]
COc1ccc(OC)c(Nc2nc(N)nc(CCl)n2)c1 | active: 31.6 µM
CC(C)CC(=O)NC(=S)Nc1cccc(NC(=O)c2ccccc2)c1 | inconclusive [inhibitor, partial curve]
COc1cc(-c2noc(C)c2C#CC2(O)CCCCC2)cc(OC)c1OC | inconclusive [inhibitor, partial curve, poor fit]
CC(C)(C)c1cc(/C=C2\NC(=O)NC2=O)cc(C(C)(C)C)c1O | active: 1.12 µM
O=C1C=CC(=O)N1c1ccc(OC(F)F)cc1 | active: 0.355 µM
COc1ccc(S(=O)(=O)N2CCN(Cc3cc(OC)c(O)c(OC)c3)CC2)cc1 | active: 3.55 µM
CC(=O)Nc1ccc(S(=O)(=O)NC2(C(F)(F)F)C(=O)Nc3c2c(=O)[nH]c(=O)n3-c2ccc(C)c(C)c2)cc1 (configuration not stated) | inconclusive [inhibitor, partial curve]
CCN1CCCC(Sc2nc3c([nH]2)c(=S)n(C)c(=O)n3C)C1 (configuration not stated) | active: 39.8 µM
N#CC(C#N)=C1C=CC=CN1/C(=C\c1ccco1)C(=O)c1ccc(Br)cc1 | active: 2.24 µM
Cc1ccc(S(=O)(=O)N2CCC(=O)N(C(COCc3cccc(C)c3)Cc3ccccc3)CC2)cc1 (configuration not stated) | inactive
Cc1cccc(CCN2C(N(C)C)=NC[C@@H]2CC(C)C)c1 | inactive
Cc1cccn2c(=O)c3cc(C(=O)NCCc4ccccc4)c(=N)n(CC4CCCO4)c3nc12 (configuration not stated) | inactive
Cc1ccc(NC(=O)CCNS(=O)(=O)c2ccc3c(c2)CCN3C(=O)C2CC2)c(Cl)c1 | inconclusive [inhibitor, partial curve]
COc1cccc(CNC(=O)CSc2nc3ccccc3nc2Cc2ccc(C)cc2)c1OC | inactive
COc1ccc(-c2nc(CS(=O)CC(=O)NCc3ccccc3)c(C)o2)cc1OC (configuration not stated) | inconclusive [inhibitor, partial curve]
COc1ccc(S(=O)(=O)N2CCc3ccccc32)cc1C(=O)N1CCN(C=O)CC1 | inconclusive [inhibitor, partial curve]
Cc1ccc(N2C(=O)C3C(C2=O)C(C(=O)c2ccc(Cl)cc2)N2CCCC32)cc1 (configuration not stated) | active: 28.2 µM
Cc1ccn2cc(-c3ccc(O)c(O)c3)nc2c1 | inconclusive [inhibitor, full curve]

Compound | Potency
COc1ccccc1NC(=O)Cn1cnc2c1c(=O)n(C)c(=O)n2C | inconclusive [inhibitor, full curve, poor fit]
Cc1ccc(-n2nc3c(=O)n(CC(=O)NCCc4ccco4)nc(C)c3c2C)cc1 | inconclusive [inhibitor, partial curve]
Cc1ccccc1NC(=O)CC1S/C(=N/c2nccs2)N(C)C1=O (configuration not stated) | inconclusive [inhibitor, full curve, poor fit]
COc1ccc(C(CC(=O)N2CCCC(C)C2)c2c(OC)cc(OC)c3c(-c4ccccc4)cc(=O)oc23)cc1 (configuration not stated) | inconclusive [inhibitor, partial curve]
CCC(=O)NC(=S)Nc1ccc(S(=O)(=O)NC2CCCCC2)cc1 | inconclusive [inhibitor, partial curve]
CCc1cccc(OCC(=O)Nc2ccc(S(=O)(=O)N3CCCC3)cc2)c1 | inconclusive [inhibitor, full curve, poor fit]
Cc1cc(C)c2c(=O)n(CC(=O)NCCCN3CCOCC3)sc2n1 | inconclusive [inhibitor, partial curve, poor fit]
Cc1cc(-c2nc3ncccc3o2)ccc1N | inactive
CCCCOC(=O)c1ccc(NC(=S)N2CCN(c3ncc4c(=O)c(C(=O)O)cn(CC)c4n3)CC2)cc1 | inactive
COc1ccccc1Nc1c2c(nc3ccc(NC(=O)c4ccc(OC)c(OC)c4)cc13)CCCC2 | inactive
COc1ccc(NC2CCCN(C(=O)c3cccc(C(F)(F)F)c3)C2)cc1OC (configuration not stated) | inconclusive [inhibitor, partial curve]
CCNC(=S)N(CCCN(C)C)Cc1cc2cc3c(cc2[nH]c1=O)OCCO3 | inconclusive [inhibitor, partial curve]
CCOC(=O)CSC1=C(C#N)C(c2ccc(F)cc2)C(C(C)=O)=C(C)N1 (configuration not stated) | inconclusive [inhibitor, partial curve]
O=C(CCN1C(=O)c2ccccc2C1=O)C1=NN[C@@H]2C(=O)N(c3ccc4c(c3)OCO4)C(=O)[C@H]12 | active: 25.1 µM
CCCN1CCN(CCCNC(=O)c2cc3c(=O)[nH]c4ccc(C)cc4c3s2)CC1 | inconclusive [inhibitor, partial curve]
COc1cc(OC)cc(-c2c(C#Cc3ccsc3)c3cc(-c4ccc(C(N)=O)cc4)ccc3n2C)c1 | active: 28.2 µM
Cc1ccc(CNS(=O)(=O)c2cc(F)ccc2CN2C(=O)c3cccnc3C2=O)o1 | active: 25.1 µM
COCCn1c(SCC(=O)Nc2ccc(S(N)(=O)=O)cc2)nc2ccccc21 | inactive
Cc1oc(-c2ccccc2F)nc1CS(=O)CC(=O)NCc1ccc(F)cc1 (configuration not stated) | inconclusive [inhibitor, partial curve]
CCOC(=O)c1ccccc1NC(=O)c1nc2nccc(C)n2n1 | inactive
CC1(C)CC(=O)C(C(C2=C(O)CC(C)(C)CC2=O)c2ccc([N+](=O)[O-])cc2)C(=O)C1 (configuration not stated) | inconclusive [inhibitor, full curve]
COc1ccccc1CNC(=O)c1cnc(N(C)C)nc1 | inactive
Cc1cc(N)n2ncc(-c3ccc(Cl)cc3)c2n1 | inactive
CCCSc1oc(-c2ccco2)nc1S(=O)(=O)c1ccc(Cl)cc1 | inconclusive [inhibitor, partial curve]
